Measurements: the supplement of paper PMC11417369
This is one part of the list.

Each sequence was assayed on PF3D7_0420300 AP2 domain 1 (GST-tagged) (assay: gcPBM binding intensity (ln(normalized median fluorescence intensity)); higher = stronger DNA binding).
Method in brief: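 After 1 h on an Agilent 4 × 180k array of primer-extended double-stranded 36-bp intergenic genomic probes and negative controls, bound GST-tagged P. falciparum DNA-binding domains were detected with Alexa488 anti-GST antibody and scanned at 488 nm. The domains had been expressed in E. coli, and binding took place in 1× PBS with 1% milk, 0.2 mg/ml BSA, 0.5% salmon testes DNA and 0.03% Triton X-100. Binding intensity is the highest Masliner-normalised natural-log median intensity across replicate spots of either probe orientation.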

Sequence	gcPBM binding intensity (ln)
AAGTATCAAAAATAAAGTACATATTTTGTAGGCAGG [XGTACX_site1463]	9.47
CAAAAAATATATTTTTGTACTTATGTTTTTATTTTG [XGTACX_site5230]	9.38
TAGTATAATATGAACACACACACACCCACAAAAAAA [CACACA_site2009]	10
TGGATATATGTAAAAATTGCAAGAAAGATAAAAGGA [CACACA_negctrl_site64]	9.6
ATTATGATATATATATGTACATATATATAATATAAT [XGTACX_site259]	9.21
TCTATGAATTAATATGCATGTAACGTATTTATACTT [TGCATGCA_site669]	9.29
AAAAAAAAAAAAAGTGCACACTTTTAATATAAATAT [CACACA_site3314]	9.16
TTTTATATATATTATACACACAAGGAAAAAAAAAAA [CACACA_site3677]	9.53
TTTTTATTTTTTAGTAGTACACACTTTTTGAACCTT [XGTACX_site1091]	9.41
TTTTTTTTTTTCCTTACACACATATTTCATTTTATA [CACACA_site747]	9.76
TATAAAAGGAAACACACACACATATATATATATATA [CACACA_site939]	9.74
ATACATATACACATTTGTACATATTCCTTTTTATCG [XGTACX_site1731]	9.47
TCTTGTTTTAATTTTTATATTATTATTTAGATATAT [CACACA_negctrl_site921]	9.38
TTATTTAAAATGAAAAGTACATATTACTTTCTCACA [XGTACX_site5043]	8.8
TACTAAATGATCATATGTACACATGTTTACTTTTTA [XGTACX_site1253]	9.26
AATATATATATATATATATATATTTCAATATATAAA [XGTACX_negctrl_site187]	8.95
CTTGGTAGTTTTTTCTTATAATCTAATTATTAATAA [CACACA_negctrl_site153]	9.29
TTAATATGAAAACTCTGTACCCAACCTTCTTATGGA [XGTACX_site2126]	9.26
TATATAAATATATAATGTACGTTTTAAAAATAATAT [XGTACX_site3881]	9.19
ATATATTAATATGTGTGTACTTAACCATTCATATGT [XGTACX_site7395]	9.55
ATATAATAAATGTAGGTGCATAAAAATATTTTGTTA [GTGCAC_site9780]	9.39
TTTTAATAATATGGATGTACATAAAAATAAATAAAT [XGTACX_site7937]	9.39

Sequence	gcPBM binding intensity (ln)
TTAACCACTAAAAGTACACACATATATACCTATATA [CACACA_site6026]	9.53
TAGTATTATTTTTTTTGTACATATAAATGTAAAATA [XGTACX_site5282]	8.99
TTTTTTTAAAATATGAGTACATAATATTGTAAAAAT [XGTACX_site6536]	8.92
AAAACATAAATACATACACACATAATATATATTAAG [CACACA_site4239]	9.91
AATATATTAAATATTACACACATACATTTAGTGGAA [CACACA_site8609]	9.49
TACTAAGAAAAGAACTGTACATAGAATATACCCAAG [XGTACX_site4757]	9.39
AATATCAAAAAAAAAAAAAAAAAAAAAAAAAAAAAA [CACACA_negctrl_site288]	8.59
ATGATAATTATTAAGGGTACATAAAAATATATCTAT [XGTACX_site8969]	9.28
TATAATTATTTTTTCACACATATGTATTTATATATA [CACACA_site4205]	9.41
ATTATTTAACATGTGGACACAAAAATTTAAGGGTTC [CACACA_negctrl_site1269]	9.31
AGATATATATATAGGTGTACTGGAATGAAATTGTTT [XGTACX_site8200]	9.48
ATGTATATTTTTAAAAGTACAGAATTTTCATATGAA [XGTACX_site5754]	9.03
ATAGTATCTGGTAGCTGTACGAGTCGTAGAGTCTAA [XGTACX_site2539]	9.11
ATATACAATACAAAAACACACACAAAAAAAGAAAAG [CACACA_site8668]	10.1
TATTTATTTATGTACGCACACAGTTGATATTAATTC [CACACA_site2754]	9.4
TAAATATAATCTAAATGTACATGACATAATTTTTTT [XGTACX_site2856]	9.03
GTGTAATATGAAATGTGTACACACGCACACACAAAA [XGTACX_site6180]	9.98
TAAAATATTTTTTGTAGTACCTTAATATTTTTGAAG [XGTACX_site3048]	8.86
TTTCAAAAATGAGTTACACACACACCGATATATATA [CACACA_site5263]	9.97
AATAAATACTAAATGGTGCAAAATTTTTTAACACTG	9.27
TATATATATTATAGATGTACTTTCATATATATGTTT [XGTACX_site8189]	9.3
AGCCACCATATTTACACACACATCAAAATGTATTAA [CACACA_site1816]	10

Sequence	gcPBM binding intensity (ln)
TATTCATCACTTTTTTGTACTTATGGATAAAATTTT [XGTACX_site3349]	9.32
ATAATTGTTTCTTTCTCCTTTTTATTTCATTTTAAA [CACACA_negctrl_site964]	9.48
CACAAAAAAAATTATACACACACACCCATATATATA [CACACA_site8255]	9.99
AAAGGATATATCCAGAGTACATATTCTGTGTAATAC [XGTACX_site1547]	9.37
TGTCTTATTTATATTACACACTATATGAAAAAATAT [CACACA_site6807]	9.24
ATATATATATATATATGTACATAATTAATAGCATAT [XGTACX_site1428]	9.38
GAAAAAGATGCGCATACACACAGATGAATAACAAAA [CACACA_site1628]	9.79
ATCATATTTATGTTGGTGCATTATACATAAAGTTTA [GTGCAC_site9574]	9.2
AAAATAAGAAAACAAATGCACACCATTTATATAGAT [CACACA_site1055]	9.72
TATATAATAAGAAAATATGTGCGTAGTTCAGCAAAA [XGTACX_negctrl_site304]	9.46
GAAAAATATATTCTGGTGCATGAATAAAATCATAAA	9.05
AATTGGATAAACCAATTGGATTATAATACGATATAT [CACACA_negctrl_site275]	9.11
AAAAAAAAAAAAAAAAGTACTCTATAAGTAACATTT [XGTACX_site6973]	8.98
ATTTTTTTGTTATTGTTGAAAAGATGGTTCTTTTTT [CACACA_negctrl_site1346]	9.32
AATTTCTTATTTTGTACACACAATAAATATTCACAT [CACACA_site1612]	9.72
TAGTAGTTATCATTAACATGCAATAATATTATTTAA [TGCATGCA_site178]	9.04
ATGAACATATTTTTTTGTACTTATGAAAATATGTTA [XGTACX_site5996]	9.02
AAGTTAGGATAGATCCAATAATTTTTAGTTTCTCTT [GTGCAC_negctrl_site272]	9.04
AAAATAAATAAATACACACACACGAATATTTATATA [CACACA_site6892]	10.1
AAAAAAAAAAAAAAAAGTACACATCATTTTATGAAA [XGTACX_site1402]	8.94
ATTATAAAAATATCGTGTACATATTTTTTAAAATAA [XGTACX_site5072]	8.91
ATTATTTCAATTTTTTTTGTTTTTAAAAAAAAAAAT [CACACA_negctrl_site1387]	8.75

Sequence	gcPBM binding intensity (ln)
GAAAACAAAATGGTAACACACAAATGTAAATAGTAT [CACACA_site2113]	9.76
GATATATTTTATATATGTACATACAAGGGTAAATAT [XGTACX_site1202]	9.4
AAAATAAACTATAGTACACACTTATTATTATGAAAT [CACACA_site5488]	9.45
TCAATTAGACGAAAATGTACATATGTATATATTTTT [XGTACX_site5027]	9.19
AAAATATGTAGCTACACACACATAAACAAAATAACA [CACACA_site1007]	9.99
ATTTTATAAAGGAAGTGTACTAATAAATTCAAATTA [XGTACX_site3922]	8.98
AAGAAAAAATATACTTCACACATTTAATATATAATT [CACACA_site4919]	9.26
AAAAAAAAAAAAAAATGTACAAATATATACATATAT [XGTACX_site935]	9.2
TCGATGTTGGTAGGATGTACGGTACCGGTAGTATTT [XGTACX_site4214]	9.44
AAAAAAGAATTGTGCACACACAAAAAATGTTCATAA [CACACA_site1103]	9.51
TAATGTTACACAAACTTTTCATTCTTTTTAATAAAT [TGCATGCA_negctrl_site331]	9.1
ATATAATTATAAAATAAACACACATATATATTTATA [CACACA_site8039]	9.48
TTATTTATTTATAATTGTACATTGCAAATGAATTTA [XGTACX_site4083]	8.76
ATATATATATATATATGTACATAGAGAAGTATCTTT [XGTACX_site4737]	9.2
AACATTTTAAATTATACACACATTTTGAATATATAT [CACACA_site3470]	9.54
TATACACCCAGACACACACACACACCCAAAAAAAAA [CACACA_site497]	10
TGTTGTTGTAATTATTGTACGTTATGCGATTATTAT [XGTACX_site7005]	9.48
ATATATATATATATGTGTACATATAAGATAGAAGAA [XGTACX_site3198]	9.68
TATTTATTTATAAATGCATGTCGCTCTTTTTATTAC [TGCATGCA_site626]	9.32
AACTATAAAAGTTTTACACACTGTTTTTAAATAATG [CACACA_site7686]	9.31
TTATGCATAAAAGGTGGTACTCCGTATATACATTCT [XGTACX_site4354]	9.24
ATTATTATAGATATAACACACATAATTACATACTTA [CACACA_site6837]	9.47
